Laboratory results published in paper PMC4242493.
The list shows a part of the results. The list includes weakly bound sequences.

Each sequence was assayed against MaxL homodimer (UniProt P61244) (assay: universal protein-binding microarray (PBM)). Conditions: PBS-based mixture, 10 nM His-tagged protein dimer, 2% milk, 200 ng/uL BSA, 50 ng/uL salmon testes DNA, 0.02% TX-100; detection with Alexa 488 anti-His …; high values mean tight binding; most listed sequences are background and not binding sites; double strand, one strand shown.
Chain of UniProt P61244 (P61244 whole entry): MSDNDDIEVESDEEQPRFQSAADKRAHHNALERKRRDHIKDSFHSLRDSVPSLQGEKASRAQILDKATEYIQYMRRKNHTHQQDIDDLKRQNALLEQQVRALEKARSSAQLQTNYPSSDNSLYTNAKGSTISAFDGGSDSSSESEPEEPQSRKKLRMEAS
Work on AACGTATA yielded a binding signal (normalized occupancy) of 0.0869. For ACGGAAGA, the binding signal (normalized occupancy) was 0.0734. For CTGAGTTC, the binding signal (normalized occupancy) was 0.0694. Sequence AGGCGAAG has a binding signal (normalized occupancy) of 0.0748. In the case of GTCAACTA, the binding signal (normalized occupancy) is reported as 0.0759. Work on AACCTCCC yielded a binding signal (normalized occupancy) of 0.0757. In the case of CTGTCATA, the binding signal (normalized occupancy) is reported as 0.0779. CCGTTGCA showed a binding signal (normalized occupancy) of 0.0742. CCAAAGCC was tested, and the binding signal (normalized occupancy) was 0.0715. In the case of CCCTTATA, the binding signal (normalized occupancy) is reported as 0.0809. ACCCTGCG was tested, and the binding signal (normalized occupancy) was 0.0765. For AAACGGAC, the binding signal (normalized occupancy) was 0.0726. AGGAGCAC showed a binding signal (normalized occupancy) of 0.0771. Sequence CTCTAGTA has a binding signal (normalized occupancy) of 0.075. CAGAAATG was tested, and the binding signal (normalized occupancy) was 0.0776. Sequence CTCAATGC has a binding signal (normalized occupancy) of 0.0789. For AGGAGGAT, the binding signal (normalized occupancy) was 0.0804. In the case of GGACAAAA, the binding signal (normalized occupancy) is reported as 0.073. With AGATCCAC the binding signal (normalized occupancy) was 0.0809. With CCACGGGG the binding signal (normalized occupancy) was 0.097. For AAGCGACC, the binding signal (normalized occupancy) was 0.0664. In the case of CCTTCAAC, the binding signal (normalized occupancy) is reported as 0.0726. With AAACGATC the binding signal (normalized occupancy) was 0.0729. With ACTACGGG the binding signal (normalized occupancy) was 0.0752. CGATATCG showed a binding signal (normalized occupancy) of 0.0794. Sequence GAGTCACC has a binding signal (normalized occupancy) of 0.0715. Sequence CTGAGGCC has a binding signal (normalized occupancy) of 0.0692. Work on AACCATCA yielded a binding signal (normalized occupancy) of 0.08. In the case of TGATTAAA, the binding signal (normalized occupancy) is reported as 0.078. With AACCAGGC the binding signal (normalized occupancy) was 0.0765. AGCTATAG showed a binding signal (normalized occupancy) of 0.0738. ATCGCGAG was tested, and the binding signal (normalized occupancy) was 0.0765. CTAACCTC gave a binding signal (normalized occupancy) of 0.0744. CCCGCTTC showed a binding signal (normalized occupancy) of 0.0706. AATGGTAA was tested, and the binding signal (normalized occupancy) was 0.0744. In the case of AGCGTTAC, the binding signal (normalized occupancy) is reported as 0.0823. TACATAAA was tested, and the binding signal (normalized occupancy) was 0.0813. Work on AGCGCCTC yielded a binding signal (normalized occupancy) of 0.0677. For AGCGTCCC, the binding signal (normalized occupancy) was 0.0758. With AGATTAGG the binding signal (normalized occupancy) was 0.0735. Work on CCGGGTCA yielded a binding signal (normalized occupancy) of 0.073. TTACTGAA was tested, and the binding signal (normalized occupancy) was 0.0754. In the case of CATCTTAA, the binding signal (normalized occupancy) is reported as 0.0826. ACCTGCAG gave a binding signal (normalized occupancy) of 0.0725. In the case of CATTTGGC, the binding signal (normalized occupancy) is reported as 0.0759. ATAGTGTA was tested, and the binding signal (normalized occupancy) was 0.0839. With CTCTGTCC the binding signal (normalized occupancy) was 0.0748. GTCTACGA gave a binding signal (normalized occupancy) of 0.0736. TGCTCTAA gave a binding signal (normalized occupancy) of 0.0747. With TCTTAAAA the binding signal (normalized occupancy) was 0.0731. CTAGTCCC showed a binding signal (normalized occupancy) of 0.0702. CACTGGCA showed a binding signal (normalized occupancy) of 0.0717. With GTCCCAGA the binding signal (normalized occupancy) was 0.0701. Sequence AGAGCTAC has a binding signal (normalized occupancy) of 0.0801. With AGATGCAC the binding signal (normalized occupancy) was 0.0867. For CCGATATC, the binding signal (normalized occupancy) was 0.0777. Work on GCTACCCC yielded a binding signal (normalized occupancy) of 0.0838. AGTCTAGA gave a binding signal (normalized occupancy) of 0.0705. With AGGCGCGG the binding signal (normalized occupancy) was 0.0756. Work on CACTTGGG yielded a binding signal (normalized occupancy) of 0.075. CCTATGGC was tested, and the binding signal (normalized occupancy) was 0.0713. Sequence CAGAAAAA has a binding signal (normalized occupancy) of 0.0719. With GAGACAGA the binding signal (normalized occupancy) was 0.0759. For AAAAGGCA, the binding signal (normalized occupancy) was 0.0774. For ATCTTATA, the binding signal (normalized occupancy) was 0.0813. Sequence CTTGTGTC has a binding signal (normalized occupancy) of 0.0751. GACCAGTC showed a binding signal (normalized occupancy) of 0.075. Work on CTTGAGGA yielded a binding signal (normalized occupancy) of 0.0717. GATTACGA was tested, and the binding signal (normalized occupancy) was 0.0799. Sequence CCATAAGA has a binding signal (normalized occupancy) of 0.0813. For AAAATGCC, the binding signal (normalized occupancy) was 0.0743. Work on AAAGCCTT yielded a binding signal (normalized occupancy) of 0.0696. TTCCACAA showed a binding signal (normalized occupancy) of 0.0785. CTGTACTC gave a binding signal (normalized occupancy) of 0.0799. Work on CAGTATGC yielded a binding signal (normalized occupancy) of 0.0721. Work on CGAGGATA yielded a binding signal (normalized occupancy) of 0.0752. TGAAACAA showed a binding signal (normalized occupancy) of 0.0784. CTCTCCAC was tested, and the binding signal (normalized occupancy) was 0.0859. ACAACTTA showed a binding signal (normalized occupancy) of 0.0755. For ATATCTCG, the binding signal (normalized occupancy) was 0.0722. AATTTACG was tested, and the binding signal (normalized occupancy) was 0.0752. For AACTTCTC, the binding signal (normalized occupancy) was 0.0726. In the case of AAATGACG, the binding signal (normalized occupancy) is reported as 0.0801. CCTCCTCC was tested, and the binding signal (normalized occupancy) was 0.0782. Work on CGCACAAG yielded a binding signal (normalized occupancy) of 0.0788. ACCCGGCT was tested, and the binding signal (normalized occupancy) was 0.0648. CCAATCTA was tested, and the binding signal (normalized occupancy) was 0.073. For ATGCAGGC, the binding signal (normalized occupancy) was 0.0872. With AGCCATTG the binding signal (normalized occupancy) was 0.0761. GCTAAAGA was tested, and the binding signal (normalized occupancy) was 0.0703. With ACTTGCCT the binding signal (normalized occupancy) was 0.0737. Sequence GCTGATTA has a binding signal (normalized occupancy) of 0.073. GCAACAGA was tested, and the binding signal (normalized occupancy) was 0.0747. Sequence CAGGCCGA has a binding signal (normalized occupancy) of 0.0691. In the case of GCGAACCA, the binding signal (normalized occupancy) is reported as 0.0723. CCAGAGCG showed a binding signal (normalized occupancy) of 0.0637. Sequence ATCTGAAG has a binding signal (normalized occupancy) of 0.0709. For CAGTCTAC, the binding signal (normalized occupancy) was 0.0718. In the case of CGCCAGTC, the binding signal (normalized occupancy) is reported as 0.0709. With GATAAACC the binding signal (normalized occupancy) was 0.0804. For CCAGACTC, the binding signal (normalized occupancy) was 0.0718. Work on ATGCCGGC yielded a binding signal (normalized occupancy) of 0.0759. With GAGAAAAC the binding signal (normalized occupancy) was 0.0721. In the case of AACCGCAC, the binding signal (normalized occupancy) is reported as 0.0807. Work on GCTGAACC yielded a binding signal (normalized occupancy) of 0.0691. With AATAAATT the binding signal (normalized occupancy) was 0.0775. CGGAATAC showed a binding signal (normalized occupancy) of 0.0715. AATTCACG was tested, and the binding signal (normalized occupancy) was 0.0771. For GGCATGAA, the binding signal (normalized occupancy) was 0.081.
